Experimental findings from the supplement of paper PMC4723716 are described below.

Each structure is given as a SMILES string. ± gives the uncertainty stated by the source. Over roughly 9,900 compounds, “viability index relative to DMSO control” has its median near 1; the lowest 2% begin near 0.85. Some of the results follow.

The assay has as its system Plasmodium falciparum NF54 stage V gametocytes. The experiment in a line: viability index relative to DMSO control (fraction); higher = less gametocyte killing. To be noted: 2.5 µM, library set: Broad Institute DOS, incubation time: 72 h. The procedure, abridged:
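In 1,536-well plates, 10 µl of serum-free medium holding P. falciparum NF54 stage V gametocytes (0.75% gametocytemia, 1.25% hematocrit) received compound at 2.5 µM for 72 hr at 37°C in low oxygen. After one to two hours with 3 µl of 2.5 µM MitoTracker Red CMXRos containing 0.13% saponin, red particles of 20–70 µm2 were counted in a single field per well. Viability index is reported as the particle count over the plate mean of wells treated with solvent only.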
`C[C@H]1CCCCO[C@H](CN(C)S(=O)(=O)c2ccc(F)cc2)[C@@H](C)CN([C@@H](C)CO)C(=O)c2cc(N(C)C)ccc2O1`: the viability index is 1.09 ± 0.17.

With `N#Cc1cccc(-c2ccc([C@@H]3[C@@H](CO)N4CCCCN(Cc5ccccc5F)C[C@@H]34)cc2)c1`, the viability index was 0.943 ± 0.044.

With `CN(C)C(=O)C[C@@H]1C[C@@H]2c3cc(NC(=O)c4cccnc4)ccc3O[C@@H]2[C@@H](CO)O1`, the viability index came out at 1.044 ± 0.0079.

The molecule `Cc1ccc(S(=O)(=O)Nc2ccc3c(c2)CC(=O)N([C@@H](C)CO)C[C@H](C)[C@@H](CN(C)S(=O)(=O)c2ccccc2)O3)cc1` displayed a viability index of 0.909 ± 0.043.

`Cc1ccccc1-c1ccc([C@@H]2[C@@H]3CN(Cc4ccc5c(c4)OCO5)C[C@H]2N3)cc1` registered a viability index of 1.04 ± 0.061.

The molecule `O=C(Nc1ccc2c(c1)[C@H]1C[C@H](CC(=O)N3CCOCC3)O[C@H](CO)[C@H]1O2)Nc1ccccc1F` showed a viability index of 1.1 ± 0.055.

The molecule `O=C(Cc1cccnc1)N1[C@H](CO)[C@H](c2ccccc2)[C@H]1CNCC1CCC1` came in with a viability index of 1.05 ± 0.069.

`CCCC#Cc1ccc([C@H]2[C@H](C#N)N(C(=O)CN3CCOCC3)[C@H]2CO)cc1` displayed a viability index of 1.1 ± 0.048.

`COc1ccc2c3c([nH]c2c1)[C@H](CO)N(C[C@]31CCN(CC1)S(=O)(=O)c1cccc(C)c1)C(=O)Nc1cccc(F)c1` gave a viability index of 0.97 ± 0.026.

In the case of `O=C(C[C@@H]1CC[C@@H]2[C@H](COC[C@H](O)CN2C(=O)c2ccncc2)O1)NCc1cc(F)cc(F)c1`, the viability index was 1.07 ± 0.017.

In the case of `COc1ccccc1C(=O)N1C[C@@H]2[C@H](c3ccccc31)[C@H](CO)N2CC1CCCC1`, the viability index was determined as 0.981 ± 0.082.

Turning to `CC(C)(C)S(=O)N1Cc2cc(C(=O)NCc3ccc4c(c3)OCO4)nc(-c3cccc(-c4cccc(F)c4)c3)c2[C@@H]1CCO` (stereo partly drawn), the viability index was 1.04 ± 0.015.

As for `C[C@H](CO)N1C[C@H](C)[C@@H](CN(C)S(=O)(=O)c2ccccc2)OCCCC[C@H](C)Oc2ccc(NC(=O)Nc3ccc4c(c3)OCO4)cc2C1=O`, the viability index was determined as 1.01 ± 0.025.

The molecule `C[C@H](CO)N1C[C@H](C)[C@H](CN(C)C(=O)Nc2ccc(F)cc2)Oc2ccc(NC(=O)c3ccncc3)cc2CC1=O` registered a viability index of 0.973 ± 0.019.

For `CO[C@H]1CC[C@H]2CCOc3ccc(C#N)cc3C(=O)N(C)CC3(CCCCC3)CC(=O)N(C)C[C@H]1O2`, the viability index came to 1.04 ± 0.046.

The molecule `COCC(=O)N1CC2(C1)[C@H](c1ccc(-c3cccc(F)c3)cc1)[C@H](CO)N2C(=O)C1CC1` gave a viability index of 1 ± 0.084.

As to `COc1ccc(S(=O)(=O)Nc2ccc3c(c2)C(=O)N([C@@H](C)CO)C[C@@H](C)[C@@H](CN(C)C(=O)Nc2c(C)noc2C)OCCCC[C@@H](C)O3)cc1`, the viability index worked out at 1.14 ± 0.11.

In turn, `COc1ccc2c3c([nH]c2c1)[C@H](CO)N(C[C@]31CN(Cc2cc(F)ccc2F)C1)C(=O)Nc1ccc(F)cc1` had a viability index of 0.973 ± 0.042.
